In PubChem BioAssay AID886 (National Center for Advancing Translational Sciences (NCATS), 2007):
Where “and” joins values, the source holds several entries; their conditions need not be identical. Equal entries are not always repeated. The campaign covered roughly 73,000 compounds. About 2,500 (3.4%) were called active. Inconclusive results, whose numbers are uncertain, are shown with a selection of clear calls. Calls come from the whole dose curve; as a rule, active = well fitted inhibition curve with a large enough effect; inconclusive = small, poorly fitted or top-dose-only effect; inactive = no such curve, though single readings can be large or run the other way. Potencies of inconclusive entries are doubtful fits and often do not repeat. The source holds several records for some structures; these can differ, active in one and inactive in another.

target: 3-hydroxyacyl-CoA dehydrogenase type-2 (Homo sapiens) (UniProt Q99714); assay: qHTS Assay for Inhibitors of HADH2 (Hydroxyacyl-Coenzyme A Dehydrogenase, Type II); settings: recombinant HADH2, NADH fluorescence, beta-hydroxybutyryl-CoA; series mostly up to 57.1 µM; note: nearly all actives have a fitted effect of over 60% in size
Description: Assay Overview: NIH Molecular Libraries Screening Centers Network [MLSCN] NIH Chemical Genomics Center [NCGC] Structural Genomics Consortium [SGC] Grant Number: None HADH2: Hydroxyacyl-Coenzyme A dehydrogenase, type II, was supplied by researchers at the Structural Genomics Consortium, Oxford University lab (PI Udo Oppermann). The mitochondrial enzyme 17-hydroxysteroid dehydrogenase type 10 (HSD17-10) previously classified as type II hydroxyacyl-CoA dehydrogenase (HADH2) catalyzes the NAD+ dependent oxidation of a variety of substrates including acyl-CoAs, androgens and neurosteroids as well as bile acids(Shafqat N, Marschall HU, Filling C, et al. Biochemical Journal. 2003;376(Pt 1):49-60). The role in neurodegeneration by binding to amyloid-peptide led to its identification (Oppermann UC, et al FEBS Letters. 1999;451(3):238-242 and Yan SD, et al. Nature. 1997;389(6652):689-695), and mutations in its gene appear to be causative for 2-methyl-3-hydroxybutyryl-CoA dehydrogenase deficiency (Ofman R, et al. American Journal of Human Genetics. 2003;72(5):1300-1307). The enzyme was produced by E.coli fermentation as His-tagged recombinant for the purpose of X-ray structure determination, and had been mass-spectrometry characterized. Inhibition of HADH2 activity was screened by utilizing beta-hydroxybutyryl coenzyme A as an electron donor and NAD+ as an electron acceptor/cofactor. An increase in the fluorescence intensity due to conversion of NAD+ to NADH was used to measure the enzyme activity.
Assay Protocol: Buffer: 100 mM Tris-HCl pH 9.0, containing 0.01 % Tween-20. Reagents/Controls: Buffer in columns 3 and 4 as negative control (no enzyme). Substrate/cofactor solution: 1 mM NAD+ and 90 uM beta-hydroxybutyryl coenzyme A (Sigma-Aldrich, St. Louis, MO) final concentrations dispensed throughout the plate. Enzyme: 20 nM HADH2 final concentration in columns 1, 2, 5-48. Column 1 is neutral (100% activity). Column 2 contained titration of apomorphine (Sigma-Aldrich, A 4393, PubChem CID 2215, top concentration 500 uM, then 1:2 dilution in duplicate) Assay Steps: Three uL of enzyme were dispensed to 1536-well Greiner black solid bottom plates. Compounds and controls (23 nL) were transferred via Kalypsys PinTool. The plates were incubated for 15 min at room temperature, and then 1 uL of substrate/cofactor solution was added to start the reaction. The plates were immediately transferred to and read every 30 seconds for 4 min on ViewLux High-throughput CCD imager (Perkin-Elmer) using 360 nm excitation and 450 nm emission fluorescence protocol. The fluorescence intensity difference between the last and the first time points was used to compute reaction progress.
% is set by controls: 0 for no effect and ±100 for the full control effect; potency is the fitted concentration of half-maximal effect; tags give direction and shape of the fitted curve.

Chain of UniProt Q99714 (Q99714 whole entry, looked up): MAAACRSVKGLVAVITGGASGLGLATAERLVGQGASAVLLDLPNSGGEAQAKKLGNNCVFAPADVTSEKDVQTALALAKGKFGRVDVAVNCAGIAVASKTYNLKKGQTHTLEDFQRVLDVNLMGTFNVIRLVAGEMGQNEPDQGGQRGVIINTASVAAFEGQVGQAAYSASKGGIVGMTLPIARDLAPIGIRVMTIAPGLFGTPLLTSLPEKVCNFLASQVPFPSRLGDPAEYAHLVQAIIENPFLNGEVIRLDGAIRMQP
Chain of UniProt Q99714 (Q99714 whole entry, looked up): as above

| Structure (SMILES) | Potency | activity change, negative = inhibition |
| --- | --- | --- |
| CC(C)(O/N=C(\C(=O)N[C@@H]1C(=O)N2C(C(=O)[O-])=C(C[n+]3ccccc3)CS[C@@H]12)c1csc(N)n1)C(=O)O | active: 7.94 µM |  |
| Cc1ccccc1[N+](=O)[O-] | active: 31.6 µM |  |
| Nc1c(C(=O)NCCN2CCOCC2)c2nc3ccccc3nc2n1Cc1ccco1 | active: 25.1 µM |  |
| Cn1c(O)c(C(=O)c2ccccc2)c(=O)n(C)c1=O | inconclusive: 3.16 µM [inhibitor, full curve] |  |
| CCOC(=O)C1CCN(/C=C2/C(=O)NC(=O)N(Cc3ccco3)C2=O)CC1 | active: 15.8 µM |  |
| Oc1ccc(Cl)cc1Cc1ccccc1 | inconclusive: 25.1 µM [inhibitor, partial curve] |  |
| CCCCc1ccc(C(=O)O)nc1 | inactive |  |
| c1cc2ccc3cccc4ccc(c1)c2c34 | active: 31.6 µM |  |
| COC(=O)c1ccc2ccn(CC(=O)NC(C)C)c2c1 | active: 25.1 µM |  |
| CCCCCCCCCc1ccc(O)cc1 | inconclusive: 25.1 µM [inhibitor, partial curve] |  |
| O=[N+]([O-])c1ccc(Cl)c(Cl)c1 | active: 31.6 µM |  |
| N#Cc1c(/N=C/c2c(O)n(Cc3ccco3)c(=O)[nH]c2=O)sc2c1CCCC2 | active: 25.1 µM |  |
| Cc1ccc([N+](=O)[O-])cc1 | inconclusive: 39.8 µM [inhibitor, single point] |  |
| O=C(Cn1ncc2c3ccccc3n(Cc3ccc(F)cc3)c2c1=O)N1CCC2(CC1)OCCO2 | inconclusive: 25.1 µM [inhibitor, single point] |  |
| CC[C@@H]1[C@H]2CCCCN3[C@@H]2[C@@H](C[C@H]3[C@@H]2C[C@H](C)C(=O)O2)[C@@H]2[C@H]1OC(=O)[C@H]2C | inconclusive: 39.8 µM [inhibitor, single point] |  |
| O=c1[nH]c(=O)n(C2CCCCC2)c(O)c1C1NCCc2ccccc21 (centres undefined) | inconclusive: 25.1 µM [inhibitor, single point] |  |
| Clc1cccc(N2CCNCC2)c1 | inactive |  |
| COC(=O)c1c(C)ccc2c(O)c3c(cc12)C(=O)c1c2c(cc(O)c1C3=O)[C@@]1(C)O[C@@](C)(O2)[C@@H](O)[C@H](N(C)C)[C@H]1O |  | inactive: -8.62% [at 11.4 µM] |
| O=S(=O)(Nc1ccc(-c2nc3ccccc3o2)cc1)c1ccccc1 | inconclusive: 25.1 µM [inhibitor, single point] |  |
| CC[C@@]1(O)C(=O)OCc2c1cc1n(c2=O)Cc2cc3ccccc3nc2-1 | active: 3.98 µM and active: 3.16 µM |  |
| CCN(CC)Cc1c[nH]c2ccccc12 | inconclusive: 25.1 µM [inhibitor, partial curve, poor fit] |  |
| O=[N+]([O-])c1ccc2c3c(cccc13)CC2 | inconclusive: 20 µM [inhibitor, partial curve] |  |
| COP(=S)(OC)Oc1ccc([N+](=O)[O-])cc1 | inconclusive: 20 µM [inhibitor, full curve] |  |
| Cc1cc(OCc2nn[nH]n2)c2c3c(c(=O)oc2c1)CCC3 | active: 10 µM |  |
| C[N+](C)(C)CCCCCCCCCC[N+](C)(C)C | inconclusive: 31.6 µM [inhibitor, single point] |  |

| Structure (SMILES) | Potency | activity change, negative = inhibition |
| --- | --- | --- |
| CN1C(=O)C(Cc2cccs2)C(=O)N(C)C1=O | inconclusive: 25.1 µM [inhibitor, single point] |  |
| CCCOc1ccc2[nH]cc(C3=CCNCC3)c2n1 | inconclusive: 39.8 µM [inhibitor, single point] |  |
| C=Cn1c(P(=S)(N2CCOCC2)N2CCOCC2)cc2c1CCCC2 | inconclusive: 31.6 µM [inhibitor, single point] |  |
| CCCN1CCc2cccc3c2[C@@H]1Cc1ccc(O)c(O)c1-3 | active: 0.501 µM |  |
| CN1C[C@@H](C(=O)N[C@]2(C)O[C@]3(O)[C@H]4CCCN4C(=O)[C@H](Cc4ccccc4)N3C2=O)C[C@H]2c3cccc4[nH]cc(c34)C[C@@H]21 | inconclusive: 6.31 µM [inhibitor, single point] |  |
| C[C@@H]1NCCc2cc(O)c(O)cc21 | active: 0.251 µM |  |
| O=C(CN1CCOCC1)c1ccc2cc[nH]c2c1 | active: 25.1 µM |  |
| Cc1cc(OCC(=O)NC2CCS(=O)(=O)C2)c2c3c(c(=O)oc2c1)CCC3 (centres undefined) | active: 31.6 µM |  |
| CCOc1cc2[nH]c(=S)n(CCCC(=O)N3CCC4(CC3)OCCO4)c(=O)c2cc1OCC | inconclusive: 31.6 µM [inhibitor, single point] |  |
| COc1ccc(Cn2c(N)c(C(=O)NCc3ccco3)c3nc4ccccc4nc32)cc1OC | active: 25.1 µM |  |
| Oc1ccccc1O | active: 1.58 µM and active: 2.51 µM |  |
| CCCCn1c(CN2CCN(c3ccc(F)cc3)CC2)nc2c1c(=O)n(C)c(=O)n2C | inconclusive: 3.16 µM [inhibitor, full curve, poor fit] |  |
| N[C@@H]1CCc2cc(O)c(O)cc2C1 | active: 0.794 µM |  |
| CC[C@H](CO)NC(=O)[C@@H]1C=C2c3cccc4c3c(cn4C)C[C@@H]2N(C)C1 | active: 20 µM |  |
| Oc1ccc2c3c1O[C@@H]1c4[nH]c5c(c4C[C@@]4(O)[C@@H](C2)N(CC2CC2)CC[C@]314)C[C@]1(O)[C@@H]2Cc3ccc(O)c4c3[C@@]1(CCN2CC1CC1)[C@H]5O4 | inconclusive: 25.1 µM [inhibitor, single point] |  |
| C[C@]1(O)CC[C@H]2[C@@H]3CCC4=CC(=O)CC[C@]4(C)[C@@]3(F)[C@@H](O)C[C@@]21C | inconclusive: 39.8 µM [inhibitor, single point] |  |
| O=C(NC1(C(F)(F)F)Oc2ccc(Cl)cc2O1)N1CCC2(CC1)OCCO2 (centres undefined) | active: 7.94 µM |  |
| Oc1ccc(Cl)c(Cl)c1 | inconclusive: 31.6 µM [inhibitor, partial curve] |  |
| CC[C@@](O)(C(=O)O)c1cc2n(c(=O)c1CO)Cc1cc3ccccc3nc1-2 | inconclusive: 3.16 µM [inhibitor, single point] |  |
| Cc1c(OCC(F)(F)F)ccnc1CS(=O)c1nc2ccccc2[nH]1 (centres undefined) | inconclusive: 2 µM [inhibitor, full curve] and inconclusive: 501 nM [inhibitor, full curve] |  |
| S=C(c1ccc(Cl)cc1)N1CCOCC1 | active: 15.8 µM |  |
| NCCSC(c1ccccc1)c1ccccc1 |  | inactive: 12.5% [at 11.4 µM] |
| COC(=O)N(c1ccc(OC)cc1)P1(=S)OCCC(C)O1 (centres undefined) | active: 1 µM |  |
| COc1cc2c(cc1OC)[C@H](C)NCC2 | inactive |  |
| CCn1cc(C(=O)O)c(=O)c2ccc(C)nc21 | inconclusive: 0.126 µM [inhibitor, full curve, poor fit] |  |

| Structure (SMILES) | Potency | activity change, negative = inhibition |
| --- | --- | --- |
| CC(C)CC(C)Nc1ccc(Nc2ccccc2)cc1 (centres undefined) | inconclusive: 15.8 µM [inhibitor, partial curve] |  |
| CN(C)c1ccc(N=Nc2ccccc2)cc1 | inconclusive: 31.6 µM [inhibitor, partial curve] |  |
| COC(=O)COc1cc(C)cc2oc(=O)c3c(c12)CCCC3 | inconclusive: 25.1 µM [inhibitor, single point] |  |
| C=CCCC#N | inactive |  |
| CCOc1ccc(-c2cc(C(=O)N3CCC4(CC3)OCCO4)c3ccccc3n2)cc1 | inconclusive: 39.8 µM [inhibitor, single point] |  |
| BrC1C(Br)C(Br)C(Br)C(Br)C1Br (centres undefined) | active: 25.1 µM |  |
| CC(=O)[C@@H]1CC[C@@H]2[C@@H]3CC=C4C[C@H](OS(=O)(=O)O)CC[C@@]4(C)[C@H]3CC[C@]21C | inconclusive: 25.1 µM [inhibitor, single point] |  |
| CN1C[C@H](CO)C=C2c3cccc4[nH]cc(c34)C[C@H]21 | active: 15.8 µM |  |
| CC(=O)[O-].CC(=O)[O-].O.O.[Cd+2] | inconclusive: 31.6 µM [inhibitor, partial curve] |  |
| c1cncc(CNC2=NCCCCC2)c1 | inconclusive: 39.8 µM [inhibitor, single point] |  |
| CCCCCCn1c(N)c(C(=O)NCCN2CCOCC2)c2nc3ccccc3nc21 | inconclusive: 39.8 µM [inhibitor, single point] |  |
| C[C@]12N[C@H](Cc3ccccc31)c1ccccc12 | inconclusive: 0.005 µM [inhibitor, full curve, poor fit] |  |
| COC(=O)N(c1ccccc1)P1(=S)OCCO1 | active: 3.16 µM |  |
| CC(=O)Nc1ccc(OC(=O)c2ccccc2N)cc1 | inconclusive: 31.6 µM [inhibitor, single point] |  |
| CCNC(C)(C)[C@@H](SS)c1ccc(Br)cc1 | inconclusive: 2.51 µM [inhibitor, partial curve] |  |
| O=c1oc(Cl)c(Cl)c2ccccc12 | active: 3.16 µM |  |
| Oc1cc(Cl)c(Cl)c(Cl)c1 | inconclusive: 39.8 µM [inhibitor, single point] |  |
| CC(C)(O)[C@@H]1[C@H]2OC(=O)[C@@H]1[C@]1(O)C[C@H]3O[C@]34C(=O)O[C@H]2[C@@]14C (tested in a mixture with another compound) | inactive |  |
| O=[As](O)(O)c1ccc(Cc2ccc([As](=O)(O)O)cc2)cc1 | inconclusive: 6.31 µM [inhibitor, single point] |  |
| c1ccoc1 | inactive |  |
| CN1C[C@H](CO)C=C2c3cccc4[nH]cc(c34)C[C@@H]21 | active: 12.6 µM |  |
| Cc1nccc2c1[nH]c1ccccc12 | active: 25.1 µM |  |
| CCOP(=S)(OCC)SCCSCC | inconclusive: 39.8 µM [inhibitor, single point] |  |
| CC1(C)N(O)C2CCCCC2N1O (centres undefined) | inconclusive: 6.31 µM [inhibitor, single point] |  |
